# In all, about 390,000 compounds went through this assay and about 4,000 (1%) were called active. Inconclusive results, whose numbers are uncertain, are shown with a selection of clear calls. The call rests on the fitted dose curve; in most records, active means well fitted inhibition curve with a large enough effect; inconclusive means small, poorly fitted or top-dose-only effect; inactive means no such curve, though single readings can be large or run the other way. Potencies of inconclusive entries are doubtful fits and often do not repeat.
# Molecular target: Thioredoxin reductase 1, cytoplasmic (Rattus norvegicus) (UniProt O89049)
# UniProt O89049, sequence (O89049 whole entry, looked up): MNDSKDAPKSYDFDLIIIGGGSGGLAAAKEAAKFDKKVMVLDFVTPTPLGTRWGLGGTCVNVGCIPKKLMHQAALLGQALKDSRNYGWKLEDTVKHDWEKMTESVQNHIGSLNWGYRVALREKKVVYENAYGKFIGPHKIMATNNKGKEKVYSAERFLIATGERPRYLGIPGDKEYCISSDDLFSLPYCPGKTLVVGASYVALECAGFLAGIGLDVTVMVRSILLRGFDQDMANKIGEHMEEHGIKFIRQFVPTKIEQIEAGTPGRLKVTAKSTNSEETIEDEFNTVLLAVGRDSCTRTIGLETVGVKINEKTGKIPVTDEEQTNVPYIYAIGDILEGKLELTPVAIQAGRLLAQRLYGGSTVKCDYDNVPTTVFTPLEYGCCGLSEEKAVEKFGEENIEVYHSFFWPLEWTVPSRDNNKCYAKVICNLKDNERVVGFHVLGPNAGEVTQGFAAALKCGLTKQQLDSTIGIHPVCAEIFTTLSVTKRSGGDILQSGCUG
# Assay: qHTS Assay for Inhibitors of Mammalian Selenoprotein Thioredoxin Reductase 1 (TrxR1): qHTS; further: nearly all actives have a fitted effect of over 65% in size
# Conditions: recombinant rTrxR1, NADPH fluorescence consumption, selenite substrate; series mostly up to 114 µM
# In short: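 Rat TrxR1 (90 nM in the dispensed reagent) was pre-reduced with 400 uM NADPH for 5 min at room temperature, then incubated with compound for 15 min. After 400 uM selenite was added, NADPH fluorescence (Ex 340/Em 450 nm) was followed for 8 min.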
# Potency means the concentration at half of the fitted maximal effect; tags describe the fitted curve by direction and shape.
row,Structure (SMILES),Potency
1,Cc1ccc(NC(=O)/C=C/C(=O)O)c([N+](=O)[O-])c1,"inconclusive: 89.1 µM [inhibitor, single point]"
2,O=C(NCc1ccccc1Cl)c1ccc2c(c1)N(Cc1ccccc1)CCS2,inactive
3,CN1CCN2c3ccccc3Cc3ccccc3C2C1 (configuration not stated),"inconclusive: 37.7 µM [inhibitor, single point]"
4,COC(=O)c1ccc(-n2nnnc2SC)cc1,"inconclusive: 22.4 µM [inhibitor, full curve, poor fit]"
5,CCCc1cc(=O)oc2cc(C)cc(OCC(=O)NC(Cc3c[nH]c4ccc(O)cc34)C(=O)O)c12 (configuration not stated),inactive
6,CC(=O)c1cccc(NC(=O)CSc2nc(=O)n(CCCN3CCOCC3)c3c2CCC3)c1,"inconclusive: 89.1 µM [inhibitor, single point]"
7,COc1ccc(C2C(C#N)=C(N)SC(N)=C2C#N)cc1OC,"inconclusive: 3.55 µM [inhibitor, full curve]"
8,COc1cccc(OC)c1OC(=O)/C=C/c1ccc(C)o1,"inconclusive: 79.4 µM [inhibitor, single point]"
9,O=C1CCSc2ccc(S(=O)(=O)Nc3cccc(C(F)(F)F)c3)cc2N1,inactive
10,CCOC(=O)N1CCN(C2CCCN(C(=O)c3ccccc3C(F)(F)F)C2)CC1 (configuration not stated),"inconclusive: 56.2 µM [inhibitor, partial curve]"
11,CSc1ccc(C2C(C#N)=C(N)Oc3c2ccc(=O)c2c(C)oc(C)c32)cc1 (configuration not stated),inactive
12,O=C(COc1ccc(S(=O)(=O)N2CCCCC2)cc1Cl)N1CCCC1,"inconclusive: 22.4 µM [inhibitor, single point]"
13,CCOC(=O)N1CCN(Cc2nc(N)nc(Nc3ccc(Oc4ccccc4)cc3)n2)CC1,"inconclusive: 17.8 µM [inhibitor, partial curve, poor fit]"
14,Cc1ccc(-c2ccc(C(=O)NCc3ccc(Cl)cc3)o2)c2ccccc12,active: 31.6 µM
15,O=C(O)c1ccc2c(c1)-c1nc3ccccc3n1C2=O,"inconclusive: 50.1 µM [inhibitor, partial curve]"
16,C=CCc1cc(C=O)cc(OCC)c1OCc1ccc(Cl)cc1,inactive
17,O=C(NC(Cc1ccccc1)C(=O)O)/C(=C/c1ccco1)NC(=O)c1cccc(Br)c1 (configuration not stated),"inconclusive: 63.1 µM [inhibitor, single point]"
18,O=C(c1cc2cc3ccc(Cl)cc3nc2o1)N1CCN(c2cccc(Cl)c2)CC1,inactive
19,O=C1NN(c2ccccc2)C(=O)/C1=C\c1ccc(-c2cc([N+](=O)[O-])ccc2O)o1,"inconclusive: 50.1 µM [inhibitor, partial curve, poor fit]"
20,COC(=O)[C@@H]1[C@@H](C#N)C2(c3ccccc3-c3ccccc32)N(c2ccc(Cl)cc2)N1C#N,active: 7.94 µM
21,CCS(=O)(=O)c1nc(S(=O)(=O)c2ccc(Cl)cc2)c(N2CCOCC2)s1,"inconclusive: 50.1 µM [inhibitor, partial curve, poor fit]"
22,CC/C(=C\C(=O)c1ccncc1)Nc1ccc(O)cc1,inactive
23,O=c1[nH]c(/C=C\c2ccccc2F)nc(O)c1[N+](=O)[O-],"inconclusive: 63.1 µM [inhibitor, partial curve, poor fit]"
24,Cc1ccc(S(=O)(=O)C(CNS(=O)(=O)c2ccc(F)c(C)c2)c2cccs2)cc1 (configuration not stated),"inconclusive: 8.91 µM [inhibitor, partial curve]"

row,Structure (SMILES),Potency
1,Cc1cccc(NC(=O)COc2ccc3oc4c(c3c2)CCCC4)c1,"inconclusive: 70.8 µM [inhibitor, partial curve, poor fit]"
2,O=C(N/N=C/c1ccc([N+](=O)[O-])s1)c1ccncc1,"inconclusive: 11.2 µM [inhibitor, partial curve, poor fit]"
3,COc1ccc(C(CNC(=O)c2ccc3c(c2)OCCO3)N(C)C)cc1 (configuration not stated),inactive
4,NC(=O)c1ccsc1NC(=O)COC(=O)c1ccccn1,"inconclusive: 79.4 µM [inhibitor, single point]"
5,Cc1nc2c(oc3ccccc32)c(=O)o1,"inconclusive: 14.1 µM [inhibitor, full curve]"
6,O=C(O)Cc1csc2ccccc12,inactive
7,Cc1nc2ccc(NC(=S)NC3CCCCC3)cc2nc1C,"inconclusive: 12.6 µM [inhibitor, partial curve, poor fit]"
8,CCOC(=O)c1cnc2ccc(C)cc2c1Sc1ccccc1C(=O)OC,"inconclusive: 28.2 µM [inhibitor, single point]"
9,Cc1cccc(NC(=O)c2c(NC(=O)c3ccco3)sc3c2CCC(C)C3)c1 (configuration not stated),"inconclusive: 89.1 µM [inhibitor, single point]"
10,CCOCCCn1c(=N)c(C(=O)NCc2ccccc2)cc2c(=O)n3ccccc3nc21,"inconclusive: 100 µM [inhibitor, single point]"
11,Cc1ccc(NC(=O)Cn2nc(-c3ccccc3)nc(Cc3ccccc3)c2=O)cc1,"inconclusive: 39.8 µM [inhibitor, single point]"
12,CCc1ccc(C2C(C#N)=C(N)SC(N)=C2C#N)s1,"inconclusive: 28.2 µM [inhibitor, partial curve]"
13,N#C/C(=C\c1cccnc1)C(=O)Nc1ccc(S(N)(=O)=O)cc1,"inconclusive: 39.8 µM [inhibitor, partial curve]"
14,CC1CC(C)CN(C(=O)COC(=O)c2nccnc2N)C1 (configuration not stated),"inconclusive: 89.1 µM [inhibitor, single point]"
15,CC(C)C(=O)Nc1nnc(SCc2cc(=O)n3ccccc3n2)s1,inactive
16,O=c1c2sccc2[nH]c(=S)n1Cc1ccccc1,inactive
17,Cc1ccc(C2CC(=O)n3nc(-c4cccc(C)c4)nc3S2)cc1 (configuration not stated),inactive
18,O=C(O)c1cnccn1,"inconclusive: 89.1 µM [inhibitor, single point]"
19,CCO/C=C1\SC(=S)N(c2ccc(Cl)cc2)C1=O,inactive
20,Oc1ccc(-c2csc(Nc3cccc4ccccc34)n2)cc1O,"inconclusive: 20 µM [inhibitor, partial curve, poor fit]"
21,CCOC(=O)NC1(NCC(C)C)Oc2ccccc2O1,"inconclusive: 35.5 µM [inhibitor, single point]"
22,CCOC(=O)CSC1=C(C#N)C(c2ccccc2C)C2=C(CCCC2=O)N1 (configuration not stated),inactive
23,COc1ccc(-n2c(=O)c3c(c4cc(OC)ccc4n3C)n(CC(=O)N3CCCC3)c2=O)cc1,"inconclusive: 22.4 µM [inhibitor, partial curve, poor fit]"
24,CCOc1ccc(CNC(=O)C2CCCN(c3nn4cc(-c5ccc(F)cc5)nc4s3)C2)cc1 (configuration not stated),inactive

row,Structure (SMILES),Potency
1,CCc1ccc(NC(=O)CCCc2nnc3n(CCCOC)c(=O)c4sccc4n23)cc1,inactive
2,COc1ccc(C2CC(=O)N3CN(Cc4ccco4)CSC3=C2C#N)cc1 (configuration not stated),"inconclusive: 50.1 µM [inhibitor, partial curve]"
3,O=C(O)c1cccc(COc2ccc(CO)cc2Cl)c1,inactive
4,Cc1cccc(NC(=O)C2CCN(S(=O)(=O)c3ccc4c(c3)OCCO4)CC2)n1,inactive
5,Fc1ccc(-n2c(Cc3cccs3)n[nH]c2=S)cc1Cl,inactive
6,O=C(CCNC(=O)c1ccccc1)Oc1ccc([N+](=O)[O-])cc1,"inconclusive: 79.4 µM [inhibitor, partial curve]"
7,CCOC(=O)C1CCCN(C(=O)c2ccc3nc(-c4cccc(OC)c4)oc3c2)C1 (configuration not stated),inactive
8,O=C(Nc1cccc(-c2nn[nH]n2)c1)c1ccc(Cl)s1,inactive
9,CCc1nnc(NC(=O)CSc2nc3cc4c(cc3cc2CC)OCCO4)s1,inactive
10,Cc1cc(Nc2ccc(O)cc2)ccc1N,"inconclusive: 56.2 µM [inhibitor, partial curve, poor fit]"
11,O=C(c1cc2sccc2n1Cc1ccc(F)cc1)N1CCc2ccccc21,"inconclusive: 5.01 µM [inhibitor, partial curve, poor fit]"
12,CC(=C/c1ccccc1)/C=N/NC(=O)c1ccc2nc[nH]c2c1,inactive
13,O=C(COC(=O)COc1ccccc1Cc1ccccc1)Nc1cccnc1Cl,"inconclusive: 89.1 µM [inhibitor, single point]"
14,C=CCN1C(=O)/C(=C/C=C2/N(CC)c3ccc(S(=O)(=O)N(C)C)cc3N2CC)SC1=S,"inconclusive: 44.7 µM [inhibitor, partial curve, poor fit]"
15,CCOC(=O)c1ccc(-c2ccc(C3Nc4ccccc4C(=O)N3O)o2)cc1 (configuration not stated),"inconclusive: 70.8 µM [inhibitor, partial curve]"
16,Cc1cc2oc(=O)cc(C)c2cc1NC(=O)CCl,"inconclusive: 56.2 µM [inhibitor, partial curve]"
17,COc1ccc(C(=O)NC(=S)NC2CCCCC2)cc1,"inconclusive: 56.2 µM [inhibitor, partial curve, poor fit]"
18,Cc1ccc(CNC(=O)Cn2ccn(-c3ccc(F)cc3)c(=O)c2=O)cc1,inactive
19,Cc1cc(C)c(S(=O)(=O)N(C2=NCCS2)S(=O)(=O)c2c(C)cc(C)cc2C)c(C)c1,inactive
20,COc1cc(OC)c(C(=O)OCCCOC(=O)c2cc(OC)c(OC)cc2OC)cc1OC,"inconclusive: 89.1 µM [inhibitor, partial curve, poor fit]"
21,CCOC(=O)CC(NC(=O)CCc1c(C)nc2cc(-c3ccccc3)nn2c1C)c1ccc(C)cc1 (configuration not stated),inactive
22,CCOC(=O)N1CCC(NC(=O)c2oc3c(c2C)-c2[nH]ncc2CC3)CC1,inactive
23,CCn1c(-c2ccc([N+](=O)[O-])cc2)n[nH]c1=S,"inconclusive: 3.16 µM [inhibitor, full curve, poor fit]"
24,CC(C)c1ccc(C2C3=C(CC(C)(C)CC3=O)NC3=C2C(=O)c2ccccc23)cc1 (configuration not stated),"inconclusive: 10 µM [inhibitor, partial curve, poor fit]"

# Source: PubChem BioAssay AID588453 (National Center for Advancing Translational Sciences (NCATS), 2011)
